According to the supplement of paper PMC3334620:
Over roughly 33,000 sequences, “E-score (-0.5 to 0.5)” has its median near -0.043; the highest 2% begin near 0.37. Some of the results follow.

target: T1, Upc2 (UniProt Q12151); assay: PBM E-score (8-mer binding enrichment) (E-score (-0.5 to 0.5)); higher = stronger / more preferred TF binding; most listed sequences are background and not binding sites; conditions: protein concentration: 200 nM; construct: GST-full length
T1 sequence: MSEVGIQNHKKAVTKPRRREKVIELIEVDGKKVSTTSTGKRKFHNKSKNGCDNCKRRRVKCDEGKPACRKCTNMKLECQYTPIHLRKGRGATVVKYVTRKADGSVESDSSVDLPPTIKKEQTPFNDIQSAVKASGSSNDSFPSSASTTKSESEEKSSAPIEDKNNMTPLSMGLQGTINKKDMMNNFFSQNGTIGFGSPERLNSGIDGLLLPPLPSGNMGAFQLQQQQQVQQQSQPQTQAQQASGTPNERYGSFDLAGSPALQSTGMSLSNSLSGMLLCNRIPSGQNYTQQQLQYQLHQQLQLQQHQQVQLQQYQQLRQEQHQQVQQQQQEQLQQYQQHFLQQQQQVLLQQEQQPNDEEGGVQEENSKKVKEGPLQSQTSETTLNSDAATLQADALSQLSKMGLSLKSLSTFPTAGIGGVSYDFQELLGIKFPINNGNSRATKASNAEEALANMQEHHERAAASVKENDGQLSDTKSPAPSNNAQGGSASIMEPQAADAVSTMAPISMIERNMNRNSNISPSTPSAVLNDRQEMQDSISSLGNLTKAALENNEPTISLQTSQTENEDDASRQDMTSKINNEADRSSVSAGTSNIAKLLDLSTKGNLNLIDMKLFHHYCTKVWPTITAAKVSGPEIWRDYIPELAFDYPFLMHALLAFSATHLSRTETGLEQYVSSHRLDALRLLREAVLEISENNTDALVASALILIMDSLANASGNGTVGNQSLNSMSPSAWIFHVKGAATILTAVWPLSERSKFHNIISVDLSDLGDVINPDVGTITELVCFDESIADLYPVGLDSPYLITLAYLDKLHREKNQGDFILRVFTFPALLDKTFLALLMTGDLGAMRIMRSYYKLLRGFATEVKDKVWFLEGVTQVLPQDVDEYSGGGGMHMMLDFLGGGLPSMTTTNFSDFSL
Procedure, shortened: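 Each ungapped eight-base word and its reverse complement, pooled, received an E-score from the Universal PBM Analysis Suite. Underlying scans, normalised with masliner, recorded fluorescent anti-GST bound to GST-tagged yeast transcription factors. These were applied at about 100-200 nM to universal all-10-mer Agilent arrays double-stranded by primer extension.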

Going from AACGAGGT to GTGTTTTA, the “PBM E-score” value falls from 0.448 to 0.0465.

First: CCTCCGGA
Second: CCGAGCAG
The “PBM E-score” value of the first is lower: -0.236 for the first, 0.0852 for the second.

First: AACACCAG
Second: ATTAACCA
The “PBM E-score” value of the first is lower: -0.223 for the first, -0.195 for the second.

Compared with GGGCATGA, ACGAGGCT is higher in “PBM E-score” value: -0.214 for the first, 0.406 for the second.

Compared with CTAATGGA, CTATATTC is higher in “PBM E-score” value: -0.112 for the first, 0.115 for the second.

First: CCCCGATC
Second: TAAGTGGA
The “PBM E-score” value of the first is lower: -0.0699 for the first, 0.0993 for the second.

First: AGTCGCTG
Second: ATTCAACC
The “PBM E-score” value of the first is lower: -0.123 for the first, -0.0794 for the second.

First: ACAGTAAG
Second: ATCTCCAA
The “PBM E-score” value of the first is higher: 0.0279 for the first, -0.294 for the second.

Going from CCGGAAGC to CGGTCTCA, the “PBM E-score” value falls from -0.113 to -0.143.

Going from GTCCCTCA to AGTTAAAT, the “PBM E-score” value rises from -0.141 to -0.0797.

Compared with GTCAAGCA, ATCATCAA is higher in “PBM E-score” value: -0.298 for the first, -0.071 for the second.

Going from ATTCTCTC to TCGATGAA, the “PBM E-score” value falls from -0.0771 to -0.114.

First: TAACTGCA
Second: CTACAATA
The “PBM E-score” value of the first is lower: -0.0611 for the first, -0.0112 for the second.

Compared with CGCTCGTA, AAGTGAGA is lower in “PBM E-score” value: 0.466 for the first, -0.0783 for the second.

Going from GCTACAAC to TAGCGGGA, the “PBM E-score” value rises from -0.173 to -0.024.

Going from GCAGGGGA to AGCCTGGC, the “PBM E-score” value falls from -0.184 to -0.218.

First: CGGAACGC
Second: GTAGCCCA
The “PBM E-score” value of the first is higher: 0.243 for the first, -0.137 for the second.

Going from AGTAGACC to CACCCCTA, the “PBM E-score” value falls from 0.0469 to -0.103.

Going from CTGCCTGC to CGGACCTC, the “PBM E-score” value rises from -0.227 to 0.0557.

First: GCTATAGA
Second: CCGGAGTC
The “PBM E-score” value of the first is higher: -0.156 for the first, -0.217 for the second.

First: AGTTTAAC
Second: GATGCGGC
The “PBM E-score” value of the first is higher: 0.174 for the first, -0.239 for the second.

Going from CGAGACTA to CGCTTGGC, the “PBM E-score” value falls from 0.208 to 0.0589.

Going from CACCGCCG to CAATATGA, the “PBM E-score” value falls from 0.0447 to 0.029.

Compared with GCTAAGAC, CTGTATCC is lower in “PBM E-score” value: 0.00142 for the first, -0.138 for the second.

First: CAAGCTCG
Second: CCGTTGGC
The “PBM E-score” value of the first is higher: 0.173 for the first, -0.199 for the second.

First: ATAAACGC
Second: ATACCCTA
The “PBM E-score” value of the first is higher: 0.344 for the first, 0.0995 for the second.

Going from AATCTCTA to CGTTGCAA, the “PBM E-score” value rises from 0.0874 to 0.138.

Compared with TAAACCGA, AGGGCCAT is lower in “PBM E-score” value: 0.271 for the first, -0.179 for the second.

Going from AGCCCTGC to GTTCGTCA, the “PBM E-score” value rises from -0.267 to -0.0278.

Compared with CGTGGGGA, CTAGGGCC is lower in “PBM E-score” value: 0.00245 for the first, -0.167 for the second.

Going from CCGATCAC to TACGGCTA, the “PBM E-score” value rises from 0.102 to 0.231.

Compared with ATCGGTTC, AGCCTTCC is lower in “PBM E-score” value: 0.00873 for the first, -0.249 for the second.

Compared with CAGATGAG, CTCATGTC is higher in “PBM E-score” value: -0.24 for the first, -0.133 for the second.

Going from GCAGGTGA to AACGGCTT, the “PBM E-score” value rises from -0.376 to 0.14.

Compared with AGCCATGG, GCCTTTGA is higher in “PBM E-score” value: -0.192 for the first, -0.123 for the second.

Going from GTAGTTAA to ACTTAGGA, the “PBM E-score” value falls from 0.0837 to -0.131.

First: AGAGCTGG
Second: GGGGCCAA
The “PBM E-score” value of the first is lower: -0.154 for the first, -0.0411 for the second.

First: GACTGTAA
Second: GGAGCCCA
The “PBM E-score” value of the first is higher: 0.067 for the first, -0.245 for the second.

Going from ACCGGGAA to GGGAGTAA, the “PBM E-score” value falls from 0.0828 to -0.194.

Going from CTATTCAA to AGGGGTAC, the “PBM E-score” value rises from -0.0594 to -0.00629.

Going from GTGACACA to AGCTTGGC, the “PBM E-score” value rises from -0.126 to -0.116.

Going from ACTCATTG to AGCACGCG, the “PBM E-score” value rises from -0.0542 to 0.0652.

Compared with AGTAGATG, CAGGCCAC is lower in “PBM E-score” value: -0.108 for the first, -0.223 for the second.

First: AGCTCCGA
Second: CGGGCCCG
The “PBM E-score” value of the first is lower: 0.0699 for the first, 0.278 for the second.

Compared with CCGCTAAG, CAGACGCG is lower in “PBM E-score” value: 0.00215 for the first, -0.0848 for the second.

Going from ACTCATGG to AGGGGCTG, the “PBM E-score” value falls from -0.157 to -0.161.

First: ATTTCTTC
Second: GCCTGTTA
The “PBM E-score” value of the first is higher: -0.026 for the first, -0.286 for the second.

Going from AGATGAAG to GGCAACCA, the “PBM E-score” value falls from -0.127 to -0.136.

Going from CCACCGCC to ATTTGGCA, the “PBM E-score” value rises from 0.0047 to 0.0539.

First: GAGACTCA
Second: CCATTGCA
The “PBM E-score” value of the first is higher: -0.0394 for the first, -0.15 for the second.

First: CCGTAGCC
Second: ACTTACTG
The “PBM E-score” value of the first is higher: 0.0482 for the first, -0.00843 for the second.

First: CAATTGAC
Second: CTCGAACA
The “PBM E-score” value of the first is lower: -0.0549 for the first, -0.00626 for the second.

Going from ACCGACCG to AGTTCTAC, the “PBM E-score” value falls from 0.13 to -0.0317.

Going from CAGCTAAG to CTGAAGTA, the “PBM E-score” value rises from -0.332 to -0.122.

First: ACAACGTG
Second: GGCTAGAC
The “PBM E-score” value of the first is lower: -0.254 for the first, -0.239 for the second.

First: CGGCAACG
Second: CTGCTTAA
The “PBM E-score” value of the first is higher: 0.215 for the first, -0.241 for the second.

Compared with CCAGTTAG, CTGCCCAG is higher in “PBM E-score” value: -0.237 for the first, -0.192 for the second.

First: CTGCAAAG
Second: GGGGAGCA
The “PBM E-score” value of the first is higher: -0.125 for the first, -0.175 for the second.

Going from AACCGGAG to GCCGCCAC, the “PBM E-score” value falls from -0.193 to -0.279.

Compared with CGGTAATC, CTATCCTA is lower in “PBM E-score” value: 0.0965 for the first, -0.129 for the second.

Compared with ATGGTTAG, CTCCACAC is lower in “PBM E-score” value: -0.2 for the first, -0.218 for the second.

First: GCAAATCC
Second: AGCATCCA
The “PBM E-score” value of the first is higher: 0.0252 for the first, -0.303 for the second.

First: AAGAGATC
Second: CATCTACG
The “PBM E-score” value of the first is lower: 0.056 for the first, 0.121 for the second.

First: AGCCCCAC
Second: AAACTCGC
The “PBM E-score” value of the first is lower: -0.0315 for the first, 0.151 for the second.

Going from CCACTTAA to ACAGTTGC, the “PBM E-score” value falls from -0.0897 to -0.151.

First: ATTTACCA
Second: CCGCTTCC
The “PBM E-score” value of the first is lower: -0.0887 for the first, -0.0802 for the second.

First: AGGTGCTC
Second: TACCTCGA
The “PBM E-score” value of the first is lower: -0.169 for the first, 0.0842 for the second.

Going from CAGTAACG to TCCCATAA, the “PBM E-score” value falls from 0.146 to -0.219.

Going from AACACAGT to GGGCTGGA, the “PBM E-score” value falls from -0.0112 to -0.155.

Compared with CGTTCAAG, ACAGTGGC is lower in “PBM E-score” value: 0.407 for the first, -0.115 for the second.

Compared with GCAGAGGA, AGGGAGTC is lower in “PBM E-score” value: -0.0662 for the first, -0.257 for the second.

Going from AAGGTCGT to AAAGCCTC, the “PBM E-score” value falls from 0.31 to -0.0101.

Compared with GGATACCA, GATACCGA is higher in “PBM E-score” value: -0.0879 for the first, -0.00382 for the second.

Going from GAGAGTAC to CTACGGAA, the “PBM E-score” value rises from 0.0133 to 0.0194.

First: AACTTGAC
Second: CCCTGCAC
The “PBM E-score” value of the first is higher: -0.0301 for the first, -0.0527 for the second.

First: GCATTAGA
Second: GCGCCGAC
The “PBM E-score” value of the first is higher: -0.139 for the first, -0.25 for the second.

First: AGTGGAGC
Second: ATAAATCA
The “PBM E-score” value of the first is lower: -0.124 for the first, -0.0114 for the second.

Compared with TATGCCAA, CCGGTGAA is higher in “PBM E-score” value: -0.0761 for the first, 0.0509 for the second.

Compared with CGGAGCTA, AGGTGGCA is lower in “PBM E-score” value: 0.0735 for the first, -0.207 for the second.

Compared with CCCTTCAC, GGTTCGTA is higher in “PBM E-score” value: -0.185 for the first, 0.445 for the second.

First: CTGCCGTA
Second: GCACCATA
The “PBM E-score” value of the first is higher: 0.336 for the first, -0.0407 for the second.

Compared with CTTTTGTC, TATCACAA is higher in “PBM E-score” value: -0.0899 for the first, 0.00921 for the second.

Going from GGTCGAAA to GACCCTAC, the “PBM E-score” value falls from -0.1 to -0.202.

Going from AGGGCCTC to CGCGGTAA, the “PBM E-score” value rises from -0.225 to 0.168.

First: AAGGCTGT
Second: GGTACTCA
The “PBM E-score” value of the first is lower: -0.146 for the first, -0.0959 for the second.

Compared with ATAGCGAT, TAGAGCAA is lower in “PBM E-score” value: -0.0733 for the first, -0.196 for the second.
